Assay results published in PubChem BioAssay AID624202 (National Center for Advancing Translational Sciences (NCATS), 2012).
In all, about 380,000 compounds went through this assay and about 4,000 (1.1%) were called active. This list was built around the results that the source calls inconclusive (neither active nor inactive); the mix of calls is not that of the screen. Calls come from the whole dose curve; as a rule, active = well fitted activation curve with a large enough effect; inconclusive = small, poorly fitted or top-dose-only effect; inactive = no such curve, though single readings can be large or run the other way. A potency beside an inconclusive call is a rough fit, not a confirmed value.

Assay: qHTS Assay to Identify Small Molecule Activators of BRCA1 Expression; note: nearly all actives have a fitted effect of over 80% in size
Conditions: MCF7-BRCA1-FFLuc reporter, luminescence, 48 h; activation: at 46.1 µM (top of the series), scaled: vehicle 0%, 10 µM genistein 100% unless noted
In short: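 MCF7-BRCA1-FFLuc, 2000 cells/well; 2 h attach, 37 °C/5% CO2; compound 48 h; luciferase substrate 15 min; luminescence end-point. Norm. to genistein 10 microM max activation and DMSO; concentration-response curves fitted.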
Potency is the fitted concentration of half-maximal effect; tags give direction and shape of the fitted curve.

| Structure (SMILES) | Potency | activation |
| --- | --- | --- |
| Cc1occc1C(=O)N/N=C/C=C\c1ccccc1[N+](=O)[O-] | inconclusive: 14.1 µM [activator, partial curve, poor fit] |  |
| Brc1ccc(-c2csc(/N=C/N3CCCC3)n2)cc1 | inconclusive: 2.51 µM [activator, partial curve, poor fit] |  |
| O=C(CSc1nnc(-c2ccncc2)o1)Nc1cccc(Cl)c1 | inconclusive: 25.1 µM [activator, single point] |  |
| CC(C)(C)NCCCCOc1ccccc1F | inactive |  |
| COc1cc(/C=C2\SC(=O)NC2=O)ccc1Oc1ccc([N+](=O)[O-])cn1 | inactive |  |
| Cc1ccc2c(c1)[C@H]1[C@H](CO2)[C@H](c2ccccc2)[C@]2(C)C(=O)Nc3cc(Cl)ccc3C(=O)N12 |  | inconclusive: -58.5% [activator] |
| CCCCNC(=O)COc1ccccc1[N+](=O)[O-] | inconclusive: 35.5 µM [activator, single point] |  |
| Cc1cc(C(=O)COC(=O)c2nccnc2N)c(C)n1C | inconclusive: 1.26 µM [activator, partial curve, poor fit] |  |
| CC(=O)/C(N=Nc1ccc2c(c1)OCO2)=C(\C)O | inconclusive: 7.94 µM [activator, partial curve, poor fit] |  |
| O=C(Nc1ccc2ccccc2n1)c1ccccc1 | inactive |  |
| COc1ccc(C2CC(=O)Nc3ccccc3S2(=O)=O)cc1OC (stereo unspecified) | inactive |  |
| COc1ccc(N2C(=O)c3ccccc3NC23CCC(C)CC3)cc1 (stereo unspecified) | inconclusive: 2.24 µM [activator, partial curve, poor fit] |  |
| CCn1ccc2cc(S(=O)(=O)N3CCCN(C(=O)NCCOC)CC3)ccc21 | inactive |  |
| Cc1ccccc1NCC(=O)N/N=C/c1c[nH]c2ccccc12 | inactive |  |
| C=CCNC(=S)N/N=C(\C)c1ccccn1 |  | inconclusive: -87.1% [activator] |
| O=C(NCC(=O)N1CCN(Cc2ccccc2)CC1)c1ccc(Cl)cc1 | inactive |  |
| Oc1c(N=Nc2ccccn2)ccc2ccccc12 | inactive |  |
| C/C(=N/NC(=O)c1ccncc1)c1ccc(NC(=O)c2ccc(Cl)cc2Cl)cc1 | inconclusive: 12.6 µM [activator, partial curve, poor fit] |  |
| O=C(NC(NC(=S)Nc1ccc(Cl)cc1Cl)C(Cl)(Cl)Cl)c1cccc([N+](=O)[O-])c1 (stereo unspecified) | inactive |  |
| Clc1ccc(-c2nnc(-c3ccco3)o2)cc1 | active: 5.62 µM |  |
| CCc1ccccc1NC(=O)CCS(=O)(=O)c1ccc(Br)cc1 | inactive |  |
| COC(=O)CSc1nc2cc3c(cc2cc1C#N)OCO3 | inconclusive: 2.82 µM [activator, partial curve, poor fit] |  |
| CCOc1ccc(N(CC(=O)NCc2ccc(C)cc2)S(=O)(=O)c2c(C)noc2C)cc1 | inactive |  |
| CCS(=O)(=O)n1nc(-c2ccc(Cl)cc2)nc1SC | inconclusive: 11.2 µM [activator, partial curve, poor fit] |  |
| CCCN1CCN(CCCNC(=O)Cn2nc(CC)n3c(cc4occc43)c2=O)CC1 | inconclusive: 35.5 µM [activator, single point] |  |
| O=C(O)c1cc(N/N=C/C=C/c2ccccc2[N+](=O)[O-])ccc1Cl | inconclusive: 2.24 µM [activator, full curve, poor fit] |  |

| Structure (SMILES) | Potency | activation |
| --- | --- | --- |
| COc1ccc2c(c1OC)C(=O)N(c1cccc(C(F)(F)F)c1)C2 | active: 2.82 µM |  |
| O=C(NCCc1ccccc1)c1n[nH]c(=O)c2ccccc12 | inconclusive: 12.6 µM [activator, single point] |  |
| CCc1ccc(NC(=O)Nc2cccs2)cc1 | inconclusive: 1.12 µM [activator, full curve, poor fit] |  |
| C=CCn1c(COc2ccc(Cl)cc2)nnc1SCc1ccc(C#N)cc1 | inactive |  |
| Cc1cnc(NC(=O)c2cccs2)s1 | inconclusive: 2 µM [activator, partial curve, poor fit] |  |
| CCOC(=O)c1cc(-c2ccc(C)cc2)n(CCC(=O)Nc2ccc(C(C)C)cc2)c1C | inactive |  |
| O=C(O)c1ccc(/C=C/c2ccc3cccc(O)c3n2)cc1 | inconclusive: 1.41 µM [activator, full curve, poor fit] |  |
| Cc1ccc(OCCn2cnc3ccccc3c2=O)c([N+](=O)[O-])c1 | active: 4.47 µM |  |
| Cc1ccccc1NC(=O)c1c(C)nn(-c2ccccc2)c1Cl | inconclusive: 20 µM [activator, partial curve, poor fit] |  |
| Clc1ccc2oc(SCc3cccnc3)nc2c1 | inconclusive: 17.8 µM [activator, single point] |  |
| CCC1CCCCN1S(=O)(=O)c1ccc(NC(=O)C2CC(=O)N(C(C)(C)C)C2)cc1 (stereo unspecified) | active: 11.2 µM |  |
| C=CCn1c(-c2ccc(OC)cc2)nc2ccccc21 | active: 10 µM |  |
| O=C(/C=C/Nc1ccc(Oc2ccccc2Cl)cc1)c1ccco1 | inconclusive: 0.631 µM [activator, full curve, poor fit] |  |
| Cc1cccc(NC(=O)c2ccc3c(c2)OCCO3)n1 | inconclusive: 0.631 µM [activator, full curve, poor fit] |  |
| O=C(Nc1cccc(Cl)c1)c1csc([C@H]2C[C@H](O)[C@@H](CO)O2)n1 | inconclusive: 11.2 µM [activator, partial curve, poor fit] |  |
| CCn1cnc2cc(NCc3ccc(OC)cc3)ccc21 | inconclusive: 10 µM [activator, partial curve, poor fit] |  |
| CCOc1ccc(N(C)S(=O)(=O)c2cc(-c3cc(C)no3)ccc2CC)cc1 | inactive |  |
| COc1ccc(-c2csc(Nc3cccc(C)n3)n2)cc1C | inconclusive: 2 µM [activator, partial curve, poor fit] |  |
| COc1cc(C(=O)Oc2ccc(Br)cc2C(=S)N2CCOCC2)cc(OC)c1OC | inactive |  |
| Cc1ccc(CNC(=O)CCCn2c(=O)c3ccccc3n(CC(=O)Nc3ccc(C)c(C)c3)c2=O)cc1 | inactive |  |
| O=C(CSc1ccc(Cl)cc1)N1CCCC1 | inconclusive: 22.4 µM [activator, single point] |  |
| Brc1ccc2ncnc(NCc3ccccc3)c2c1 | inactive |  |
| CC(=O)Nc1ccc(-c2nc3c(C)cccc3[nH]2)cc1 | inconclusive: 6.31 µM [activator, partial curve, poor fit] |  |
| COc1c(O)cc(O)c2c(=O)cc(-c3ccccc3)oc12 | inconclusive: 17.8 µM [activator, single point] |  |
| COc1cc(CCC(C)=O)ccc1OC(=O)c1c(F)cccc1Cl | active: 8.91 µM |  |
| CC1CCCN(C(=O)c2ccc3c(c2)OCCO3)C1 (stereo unspecified) | inconclusive: 12.6 µM [activator, single point] |  |

| Structure (SMILES) | Potency | activation |
| --- | --- | --- |
| CN(C)c1ccc(C#Cc2ccc3cc(CCO)oc(=O)c3c2)cc1 | inconclusive: 2 µM [activator, full curve, poor fit] |  |
| Cc1ccc(-c2cc(C(=O)NCc3cccnc3)no2)cc1 | inconclusive: 7.94 µM [activator, partial curve, poor fit] |  |
| CCOc1ccc(NC(=O)c2ccc(F)cc2F)cc1 | active: 11.2 µM |  |
| COc1ccc(/C(N)=N/OC(=O)COc2ccccc2Cl)cc1 | inconclusive: 3.55 µM [activator, partial curve, poor fit] |  |
| CC(C)(C)c1ccc(Nc2n[nH]c3ccccc23)cc1 | inconclusive: 0.316 µM [activator, full curve, poor fit] |  |
| CCn1ccc(C(=O)Nc2ccccc2Cl)n1 | active: 3.16 µM |  |
| CCN(CC)CC#CCC(O)(c1ccccc1)c1ccc(Br)cc1 (stereo unspecified) | inactive |  |
| Cn1/c(=N/NC(=O)c2ccccc2Br)sc2ccccc21 | active: 10 µM |  |
| N#Cc1ccccc1OCC(=O)Nc1ccc2c(c1)OCCCO2 | inconclusive: 10 µM [activator, partial curve, poor fit] |  |
| Fc1ccc(Nc2ncnc3onc(-c4ccc(Cl)cc4)c23)cc1Cl | inactive |  |
| COn1c(-c2ccc(Cl)cc2)nc2ncccc21 | active: 7.08 µM |  |
| Cc1cc(C(=O)CN2C(=O)NC(CC(C)C)C2=O)c(C)n1C1CC1 (stereo unspecified) | inconclusive: 11.2 µM [activator, partial curve, poor fit] |  |
| NS(=O)(=O)c1ccc(CCNC(=O)c2ccc(Cl)c(S(=O)(=O)N3CCCCC3)c2)cc1 | inactive |  |
| O=S(=O)(c1ccccc1)c1nc(-c2ccccc2Cl)oc1NCCCN1CCOCC1 | inactive |  |
| O=C(/C=C/c1ccccc1)NCC(=O)N/N=C\c1cccnc1 | inactive |  |
| COc1ccc(NC(=O)c2cc(-c3ccco3)on2)cc1 | inconclusive: 2.51 µM [activator, full curve, poor fit] |  |
| COc1ccc(C(=O)Nc2sc3c(c2C(=O)NCc2ccco2)CCCC3)cc1OC | inactive |  |
| Cc1ccccc1OCC(=O)OCC(=O)c1ccc(OCc2ccccc2)cc1 | inconclusive: 15.8 µM [activator, single point] |  |
| Cc1ccc(CNC(=O)C2(S(=O)(=O)c3ccccc3)CC=CC2)cc1 | inconclusive: 12.6 µM [activator, partial curve, poor fit] |  |
| COc1ccc(Nc2nc3ccccc3s2)cc1 | active: 5.01 µM |  |
| Cc1cccc(-c2noc(-c3ccc(F)cc3)n2)c1 |  | inconclusive: -74.2% [activator] |
| O=C(CSc1ccccn1)Nc1ccc2c(c1)CCC2 | active: 10 µM |  |
| Nc1cccc(/C=C/c2ccncc2)c1 | inconclusive: 35.5 µM [activator, single point] |  |
| C/C(=N\OC(=O)Nc1ccccc1)c1ccc(C)cc1 | inconclusive: 15.8 µM [activator, partial curve, poor fit] |  |
